Source: the supplement of paper PMC11417369
Some of the results follow.

test system: PfSIP2 AP2 domain 1 (GST-tagged); assay: gcPBM binding intensity (ln(normalized median fluorescence intensity)); higher = stronger DNA binding
Outline: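 Alexa488 anti-GST antibody, scanned at 488 nm, detected GST-tagged P. falciparum DNA-binding domains that had been expressed in E. coli and incubated for 1 h on an Agilent 4 × 180k array. The array carried primer-extended double-stranded 36-bp intergenic genomic probes and negative controls. Binding intensity is the highest Masliner-normalised natural-log median intensity across replicate spots of either orientation of each probe.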

Sequence	gcPBM binding intensity (ln)
CGCGCACCCAGACACACACACACACCGATATATATA [CACACA_site8687]	10.6
AAAAAAAAAAAAAGTACACACTTATAAAATATTATG [CACACA_site4639]	7.22
TAAATTATCTTTTTATGTACTTATTTTTATTATTTT [XGTACX_site3158]	7.06
TATTTTCAACATATTTGTACATATTTTATATTTTAA [XGTACX_site101]	7.08
TGCATACTAGCCAATTGTACATAATTTTATTTTAAA [XGTACX_site513]	7.09
ATTATGATTTTATAGAACTGAACATTTACATTAAAT [GTGCAC_negctrl_site192]	6.86
AAAATAAATCTGAATGGGGTATAATATATCTTTGTT [CACACA_negctrl_site744]	6.82
AAAAGGAACAGACACACACACATATATATATATATA [CACACA_site3587]	9.9
ATTTATTATATATACACACATACATATATATATATA [CACACA_site2159]	9.14
ATAACAAAATAAAACACACACACAAATGTACTTATA [CACACA_site8768]	6.94
TGCTTTTATTTCTTCACACATATGTAAAAAAAAGAA [CACACA_site5906]	7.72
AAAAAATTCTGGTACTGTACACATTTTTTTAAATTT [XGTACX_site6904]	7.18
ATATGAGAGAATAAAACACACAAAAAAAAAAAAAAA [CACACA_site2865]	6.95
TAATAATCAAGTTAACGTACAAAATCATCTATAGAA [XGTACX_site5921]	6.92
GTAGCCTTTCTTTATAAAGGCAAACAAACAAAAAAT [CACACA_negctrl_site1491]	7.3
AAAAATTAAAAGAAAATACACACCTGTGGGTGCTTA [CACACA_site1988]	7.66
TTATATAGGCAGATGGTGCATCTATTTATAAGCAAC	10.7
TGTATGTATTTTCAATGTACATAAAAAAAAAAAAAA [XGTACX_site4397]	7.15
TATTTTTTTTGTTAGGTGCATTTACATTTATTTTTA	9.93
AAAAAAAAAAGTTCTACACACACAAAAAAATATTTT [CACACA_site8725]	6.82
TATAATATAATTAAAAGTACTTAAAAAAGAATGAAA [XGTACX_site1157]	7.43
TGTTTATATAATATTCTACACACCAACAACAAACAT [CACACA_site8087]	7.45
TTTTTAAAACATATCACACATATATATATATATATA [CACACA_site5991]	9.59

Sequence	gcPBM binding intensity (ln)
TATTTTTATAAAAATCGTACAAGTGATCCAATTTTT [XGTACX_site4402]	6.87
CCGTATTCAAAAAGGAGTACACAATTATATGTTATA [XGTACX_site641]	6.82
AAAAAAAAAAAAAAATGTACATATATATAAATATAT [XGTACX_site6768]	7.25
ATATATATATATATATGTACATATTTTTATTTATAC [XGTACX_site2858]	9.51
TATGTAATGTTTACAACACACAAATTATAAATACAA [CACACA_site1771]	6.95
TATTTATATGTATATACATGCACATATATATGAAAC [TGCATGCA_site1005]	7.7
CTATTTTATATGTGCACACATATACTCAGACAAATA [CACACA_site4761]	9.42
ACCTATATACTAAATGCACACTTATATATTTATATA [CACACA_site5371]	7.63
TAATTCGCATTTTATACACACATTCGAACCTTTTTT [CACACA_site7549]	6.96
AAATTAATACATTATTGTACTTTTCATGTGCAGAAA [XGTACX_site8284]	7.02
CATATTACATTAAATTGTACATATATATATATATAT [XGTACX_site3295]	9.7
CGGATGAATATATATGCACACATCTTTTGTAAAAAT [CACACA_site3190]	7.6
TGTATAAATATATGCACACATATATATATTTATATA [CACACA_site3473]	7.31
TCAATAAATGAATATGCATGCACGCTCTTTAGAGAT [TGCATGCA_site553]	8.67
GAGAAAAAAAAAAAAAAACACACGGTACATTCAAAG [CACACA_site1767]	6.76
ATATTTATAAATTGCACACAAATAATAACATTCTAT [CACACA_site2357]	7.02
TATTATTATTATGGTAGTACATGTAGGTTATTAAAA [XGTACX_site5742]	7.31
AATTGGGAAGGACATGCATGAGAAATTAATATTGCA [TGCATGCA_site424]	6.7
AACATACACATATACACACACACATATATACCTATA [CACACA_site6643]	7.38
TCAATTTTACTTGTTTGTACATAAAATAATAAGGTT [XGTACX_site3732]	7.12
AAGAAAAAAAAAATTACACACTGCGGACATACACAA [CACACA_site4838]	6.91
ATATTTTGTTTTTGTTCTTTTTTTTTCTTTTTTTTT [CACACA_negctrl_site1342]	6.65
ATATCTACTATACAACTGAGTGTAGAAAAATTAAAC [CACACA_negctrl_site1211]	7.19

Sequence	gcPBM binding intensity (ln)
ACTTTGCTCTACAATGCATGCTCATTTAACAAGGCA [TGCATGCA_site676]	7.24
TATATTAAATGAAACAAACACACATAGCCTTTAAAT [CACACA_site1559]	6.9
AATATATTTAATCATACACACATTTATGTACCTATA [CACACA_site1718]	7.02
TCGCCCTACAATTTGTTTATATATTAAATAAAATTT [CACACA_negctrl_site883]	7.31
TGAAATTCCATAAAATGTACATATTAGTTTAATTCA [XGTACX_site4031]	6.75
CATCATCTTTTAAAGGTGCATAATAATATTGTTAAT	11.1
ATGTTCTTTAAAACCACACACCCCCCAACCCCCCTC [CACACA_site2373]	9.7
GTCTATTATTTTTGAAGTACAAAAATTTTAGTTAAA [XGTACX_site4708]	7.26
AAAAATAAATATATATGTACACATATGTATACAATA [XGTACX_site4692]	7.03
GAAATAAATATAATATATATATATATATATATATGT [TGCATGCA_negctrl_site216]	7.9
GGTATACACAGACATGCATGTAATTATATATAGGGA [TGCATGCA_site83]	7.33
TTACAACATGAAAATGTGCACATATATATATATATA	9.25
TGAATTAAGATTTATTGTACATAATTTATACCATAT [XGTACX_site7034]	6.88
TAAATTTATAGACACACACACATATAAATAAATATA [CACACA_site6530]	7.08
ATATAATATATATATTGTACATATATTTATAAGCAT [XGTACX_site3726]	7.04
TATATATATATATATTGTACATTTACCAAATTGTGT [XGTACX_site5791]	9.42
AATGTGCTCGCTATTACACACTCATTGGGATAAACT [CACACA_site7043]	6.79
TATATAAATAAATATACACACATATATAAATATACA [CACACA_site2982]	6.81
TTTTTTTTTTTTTGCACACTTAAATTTGGAGTGTAG [CACACA_site2345]	7.65
TTTAATAATAATACTAGTACACATTCTTTATTATTT [XGTACX_site2671]	7.14
AAAGTAAAAAATCATAGTACACATTTAAATATATAT [XGTACX_site2323]	7.12
TAATATATCAAATGAAGTACTCACATATACATAATA [XGTACX_site6051]	6.85
GGTATATATTTATAATGTACATATTCATATATATAA [XGTACX_site3291]	7.25

Sequence	gcPBM binding intensity (ln)
TTTTTTAAATTATGTAGTACGATTCATTTTTTATAA [XGTACX_site1101]	6.89
AAGATTTTCCTTGATAGTACACTTATGAAAATTTGT [XGTACX_site3047]	6.92
AATATCTTAGTGGATACACACATATAAATGTGGATT [CACACA_site485]	6.72
ATATATTACGACTTCTGTACATAATATATAAAAGAA [XGTACX_site2353]	7
TTTTTTTTTTTTTTTTTTTTTTTGTCTTATTTTTTT [GTGCAC_negctrl_site338]	6.81
TATATATCAATATGCACACACAAGAAGTAATTATAA [CACACA_site7487]	8.2
TAAAAAGTATATAAGAGTACACATATTTATAAATAT [XGTACX_site3084]	7.16
AGACTTTGTACAAACACACACATGAGCACAATATTA [CACACA_site6755]	7.26
AACAAATTTTTTTTTCCTTTTTTTTTTTTACTTCAT [CACACA_negctrl_site1214]	6.52
ATAAACAAAGTTAAATGTACAAAGGGGTAAAAAAAA [XGTACX_site83]	6.9
ACACAATTGAAATAGTGTACAAAATGTTGTTACATA [XGTACX_site8671]	6.94
TTATTAACCAAACGCACATGCAAAATATATTATATA [TGCATGCA_site915]	7.09
AAATAAATAATATGTAAACACACAAAAAATAAAAAT [CACACA_site8307]	6.96
TTTTTTTTTCGGAAAAGTACAAAACTTTTTTATAAT [XGTACX_site4670]	6.88
TTTTTTTTTTTCGGGGGTACTAATATATTATTAATA [XGTACX_site7809]	8.37
GTTTTTAAGAAAAACACACACTCCTGTTATTTTATA [CACACA_site3696]	6.92
AACAAAATTGAAGGAACACACATACAGATATATATA [CACACA_site4264]	7.16
TAATAATTAATTAATATAATATTTTTTCATAATTAT [XGTACX_negctrl_site602]	6.82
ATAGAAAAAATATACACACACTTATTAAATAAAAAT [CACACA_site7540]	6.91
CATGTGCATATTAAATGTACATATATACATATATAC [XGTACX_site857]	7.74
